# Laboratory results taken from paper PMC4336329 (PLoS ONE, 2015).
# Hit rate of the full screen: of about 310,000 compounds, about 14,000 (4.5%) showed an effect of 50% or more. The effect is printed as a negative number. The list shows a part of the results.
# Target: human ether-à-go-go-related gene (hERG) potassium channel (human, UniProt Q12809)
# Assay: primary screen, population patch clamp on CHO cells stably expressing hERG
# 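Note: peak tail current of the secondary pulse compared with the same well before compound.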
# Sequence of human ether-à-go-go-related gene (hERG) potassium channel (Q12809 whole entry, looked up): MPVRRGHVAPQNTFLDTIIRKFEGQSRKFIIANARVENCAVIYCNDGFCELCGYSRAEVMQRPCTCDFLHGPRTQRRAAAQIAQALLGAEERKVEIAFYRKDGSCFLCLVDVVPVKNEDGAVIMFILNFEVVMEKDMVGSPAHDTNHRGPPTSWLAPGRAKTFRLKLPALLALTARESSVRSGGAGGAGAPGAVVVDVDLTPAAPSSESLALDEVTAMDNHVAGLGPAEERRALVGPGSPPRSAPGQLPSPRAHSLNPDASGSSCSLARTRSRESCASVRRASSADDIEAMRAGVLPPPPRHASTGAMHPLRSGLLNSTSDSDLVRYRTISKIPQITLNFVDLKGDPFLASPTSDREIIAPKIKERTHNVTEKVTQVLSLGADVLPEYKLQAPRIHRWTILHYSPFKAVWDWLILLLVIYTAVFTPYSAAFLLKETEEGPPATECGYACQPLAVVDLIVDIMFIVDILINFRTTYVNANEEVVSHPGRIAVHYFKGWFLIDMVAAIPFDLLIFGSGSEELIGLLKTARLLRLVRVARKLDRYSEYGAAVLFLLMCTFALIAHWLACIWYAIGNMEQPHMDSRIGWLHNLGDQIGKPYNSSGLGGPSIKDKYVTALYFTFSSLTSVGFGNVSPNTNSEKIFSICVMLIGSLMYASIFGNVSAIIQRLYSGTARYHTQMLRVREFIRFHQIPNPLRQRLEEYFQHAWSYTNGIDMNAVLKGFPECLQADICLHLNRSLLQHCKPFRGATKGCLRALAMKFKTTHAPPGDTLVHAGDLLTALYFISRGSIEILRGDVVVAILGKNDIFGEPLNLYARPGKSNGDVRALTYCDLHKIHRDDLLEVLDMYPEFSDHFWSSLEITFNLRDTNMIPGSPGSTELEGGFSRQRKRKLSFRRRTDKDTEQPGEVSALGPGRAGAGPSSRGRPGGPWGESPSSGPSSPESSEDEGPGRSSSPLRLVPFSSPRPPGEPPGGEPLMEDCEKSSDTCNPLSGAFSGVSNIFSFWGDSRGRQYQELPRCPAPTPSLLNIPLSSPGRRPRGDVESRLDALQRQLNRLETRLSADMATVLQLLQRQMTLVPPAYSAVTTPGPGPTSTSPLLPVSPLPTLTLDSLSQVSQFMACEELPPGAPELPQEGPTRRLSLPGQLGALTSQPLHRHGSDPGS
row,SMILES,"hERG current change (%, negative = inhibition) at 10uM"
1,Clc1ccc(CON/C=N/c2ncnc3sccc23)c(Cl)c1,6.25%
2,COc1cc2c(cc1NC(=S)NC(=O)c1c(OC)cccc1OC)oc1ccccc12,29.3%
3,COc1cc(OC)c(C2=NOC(C(=O)O)C2)cc1Cl (centres unmarked),5.14%
4,O=S(=O)(c1ccc(-c2ccon2)s1)N1CCCC1,-6.08%
5,O=C(NCCc1ccc(Cl)cc1)C1CC(=O)N(CCc2ccccc2)C1 (centres unmarked),-62%
6,CC(=O)N1CCN(Cc2nc3cc(NC(=O)COc4cccc(C)c4)ccc3n2C)CC1.Cl,-15.3%
7,O=c1cc(CSc2nnnn2-c2ccc(O)cc2)nc2sccn12,-1.78%
8,COC(=O)c1ccc(C2c3c(oc4ccccc4c3=O)C(=O)N2CCCN2CCOCC2)cc1 (centres unmarked),-5.45%
9,COC(=O)c1sccc1NC(=O)c1ccccc1C(=O)O,15.5%
10,COc1ccc(C2c3[nH]c4ccccc4c3CCN2C(=O)Cc2nonc2C)c(F)c1 (centres unmarked),16.5%
11,COc1ccc(-c2csc(NC(=O)c3ccccc3F)n2)cc1,5.36%
12,CCOC(=O)C1CCN(c2ccc(-c3cccs3)nn2)CC1,-12.5%
13,CCOc1ccc(CNc2ccc(CNc3ncn[nH]3)cc2)cc1,12.9%
14,COc1ccc(-c2nc3ccccn3c2Cl)cc1,10.9%
15,CC(C)NC(=S)N=Nc1c(O)[nH]c2ccc(C(C)C)cc12,12.3%
16,CC1Cc2ccccc2N1C(=O)CN1CCC(n2nnc3cc(C(F)(F)F)ccc32)CC1 (centres unmarked),-67.2%
17,CCOC(=O)C1=C(COC(=O)c2cccnc2Cl)NC(=O)NC1C (centres unmarked),6.19%
18,Br.CC(C)c1nnc2n1N=C(c1ccc(Cl)cc1)CS2,3.75%
19,Cc1cc(NC(=O)c2ccc(Cl)c([N+](=O)[O-])c2)no1,11.2%
20,Cc1ccccc1-n1nc(C)c2cc(C(=O)N3CCN(S(=O)(=O)c4ccc(Cl)cc4)CC3)sc21,4.46%
21,CC(=O)Nc1cccc(-n2nnc(SCC(=O)Nc3ccccc3)n2)c1,13%
22,C=CCOc1c(Br)cc(CNn2nnnc2N)cc1OC,6.16%

row,SMILES,"hERG current change (%, negative = inhibition) at 10uM"
1,O=C(Nc1cc(C(F)(F)F)ccc1Cl)C(Sc1ccccn1)c1ccccc1 (centres unmarked),11.1%
2,CC(=O)Nc1ccc(S(=O)(=O)N2CCN(Cc3ccncc3)CC2)cc1,-8.67%
3,O=C(O)C(Cc1ccc(O)cc1)N1C(=O)c2ccccc2C1=O (centres unmarked),4.9%
4,O=C(CCC(=O)c1cccs1)NNC(=O)c1ccccc1O,0.144%
5,CC(C)C(C(=O)NCc1ccco1)N(CC1CCCO1)C(=O)CNS(=O)(=O)c1ccc(F)cc1 (centres unmarked),-4.42%
6,Cc1ccccc1CN1CCCN(Cc2ccc(Cl)cc2)S1(=O)=O,-1.63%
7,CCOc1ccc(/C(O)=C2/C(=O)C(=O)N(CC3CCCO3)C2c2cccs2)cc1 (centres unmarked),8.12%
8,COc1ccc(CNC(=O)CCS(=O)(=O)c2ccc3c(c2)CCN3C(C)=O)cc1,12.3%
9,CCCCN(CCCC)C(=O)c1cc2ccccc2c(=O)o1,-0.403%
10,COc1cccc(C2=CC(=O)C[C@H](c3ccc4c(c3)OCO4)C2)c1OC,1.22%
11,COc1ccc(NC(=O)CCCC(=O)c2ccccc2)cc1,24.1%
12,COC(=O)c1ccc(CN2CCCC(C(=O)c3cc(F)ccc3OC)C2)cc1 (centres unmarked),-68%
13,Cl.NCCCNc1ccc([N+](=O)[O-])cc1C(F)(F)F,-15%
14,O=C(NCc1cccnc1)C1c2ccccc2C(=O)N1Cc1ccccc1 (centres unmarked),0.956%
15,O=C(NCc1ccccc1CN1CCCC1)c1cccc(S(=O)(=O)N2CCCC2)c1,-55.1%
16,C/C(=N\NC(=S)NC1CCCCC1)c1cccc(Br)c1,12%
17,COc1cccc(CN2CCC(n3nccc3NC(=O)C3CC3)CC2)c1,-44.7%
18,CCOc1ccccc1N(CC(=O)N/N=C(\C)c1cccc(Br)c1)S(C)(=O)=O,8.73%
19,O=C(Nc1ccccc1O)c1ccc2c(c1)C(=O)N(Cc1ccco1)C2=O,5.13%
20,CNc1nc(N)c([N+](=O)[O-])c(Nc2cccc(Cl)c2)n1,3.64%
21,CCC(CC)c1nnc(NC(=O)C2COc3ccccc3O2)s1 (centres unmarked),0.247%
22,NC(=O)C1(NC(=O)[C@@H]2CC3(CC(c4cccc(NC(=O)[C@@H]5CCC(=O)N5)c4)=NO3)CN2C(=O)Cc2ccc(C(F)(F)F)cc2)CC1 (some centres unmarked),12.8%
